The results in this text go back to PMC6823378, “Clathrin light chain A drives selective myosin VI recruitment to clathrin-coated pits under membrane tension” (Nature Communications, 2019).

Protein sequences, listed by entry. Tags and fused reporters are not part of them.
UniProt Q00610: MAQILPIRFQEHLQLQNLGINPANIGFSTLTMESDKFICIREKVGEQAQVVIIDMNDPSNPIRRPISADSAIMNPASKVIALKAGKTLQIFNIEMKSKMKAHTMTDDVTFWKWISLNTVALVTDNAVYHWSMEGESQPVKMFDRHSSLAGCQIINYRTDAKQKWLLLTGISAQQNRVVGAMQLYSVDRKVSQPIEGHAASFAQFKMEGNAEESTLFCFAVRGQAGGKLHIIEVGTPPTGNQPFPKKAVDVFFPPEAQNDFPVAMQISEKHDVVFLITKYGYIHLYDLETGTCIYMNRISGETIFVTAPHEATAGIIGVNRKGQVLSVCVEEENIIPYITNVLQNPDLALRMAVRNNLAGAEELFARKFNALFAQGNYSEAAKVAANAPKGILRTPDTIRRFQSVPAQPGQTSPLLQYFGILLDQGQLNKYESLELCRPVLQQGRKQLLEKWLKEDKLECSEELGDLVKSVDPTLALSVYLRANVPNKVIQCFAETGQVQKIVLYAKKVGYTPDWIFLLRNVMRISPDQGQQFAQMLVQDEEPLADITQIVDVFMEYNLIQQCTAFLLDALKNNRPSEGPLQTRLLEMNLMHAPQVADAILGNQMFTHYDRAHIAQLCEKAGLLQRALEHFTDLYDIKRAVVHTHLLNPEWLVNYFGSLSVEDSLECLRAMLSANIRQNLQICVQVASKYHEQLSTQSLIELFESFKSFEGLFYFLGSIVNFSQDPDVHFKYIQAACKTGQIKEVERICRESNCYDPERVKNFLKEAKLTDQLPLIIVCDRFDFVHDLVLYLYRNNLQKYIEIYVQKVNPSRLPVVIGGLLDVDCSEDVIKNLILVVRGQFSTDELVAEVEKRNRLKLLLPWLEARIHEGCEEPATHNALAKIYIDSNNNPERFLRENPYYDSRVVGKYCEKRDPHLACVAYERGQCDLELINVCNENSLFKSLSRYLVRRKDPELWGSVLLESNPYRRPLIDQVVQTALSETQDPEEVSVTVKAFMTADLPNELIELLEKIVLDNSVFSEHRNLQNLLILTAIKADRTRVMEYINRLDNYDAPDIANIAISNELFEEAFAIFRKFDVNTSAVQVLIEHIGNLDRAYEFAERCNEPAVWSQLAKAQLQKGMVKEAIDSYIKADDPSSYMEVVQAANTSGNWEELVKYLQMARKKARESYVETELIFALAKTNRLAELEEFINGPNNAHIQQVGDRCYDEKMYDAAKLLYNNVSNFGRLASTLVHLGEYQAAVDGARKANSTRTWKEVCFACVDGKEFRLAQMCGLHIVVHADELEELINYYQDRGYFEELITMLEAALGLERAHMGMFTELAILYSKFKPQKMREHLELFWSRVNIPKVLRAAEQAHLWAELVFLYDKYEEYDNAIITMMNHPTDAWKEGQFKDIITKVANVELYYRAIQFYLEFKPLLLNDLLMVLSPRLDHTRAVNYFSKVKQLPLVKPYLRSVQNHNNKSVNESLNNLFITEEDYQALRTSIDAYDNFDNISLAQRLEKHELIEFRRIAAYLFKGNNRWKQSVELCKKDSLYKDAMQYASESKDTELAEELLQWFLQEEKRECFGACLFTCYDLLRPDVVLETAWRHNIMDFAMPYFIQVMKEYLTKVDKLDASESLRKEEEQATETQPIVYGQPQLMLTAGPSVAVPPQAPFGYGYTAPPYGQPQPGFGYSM

Assay [1] addresses T1, RFP-CLCa wild type (rat) (rat) (UniProt P08081).
T1 sequence: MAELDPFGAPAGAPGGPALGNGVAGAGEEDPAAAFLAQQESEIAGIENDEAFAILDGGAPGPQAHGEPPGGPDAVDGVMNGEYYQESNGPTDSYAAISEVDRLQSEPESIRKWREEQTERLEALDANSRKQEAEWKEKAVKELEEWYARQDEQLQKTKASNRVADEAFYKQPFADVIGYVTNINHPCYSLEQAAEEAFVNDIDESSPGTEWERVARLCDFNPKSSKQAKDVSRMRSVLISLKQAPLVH
Kind of assay: co-IP; lysates (1 mg, JS buffer) of confluent Caco-2 cells expressing RFP-rat CLCa WT or I54D, depleted of endogenous CLCs by siRNA or mock treated; RFP-Trap 120 min at 4 °C; immunoblot.

Assay [2] deals with T2, RFP-CLCa I54D (rat) (rat) (UniProt P08081).
T2 sequence: T1 sequence with I54D
Described as above.

Assay [3] deals with GST-myosin VI^1050–1131 (human) (UniProt Q9UM54). The assay is described as follows: pull-down; GST-myosin VI^1050–1131 wild type and mutants on beads with lysates (1 mg) from HEK293T cells; immunoblot with anti-CLCa antibody; only the target purified.
The target in assay [4] is GST-myosin VI^1050–1131 with a single substitution of Y1121 (human) (UniProt Q9UM54). The assay is described as above.
In assay [5] the target is myosin VI^1050–1131 of the long isoform, cleaved from GST and purified (UniProt Q9UM54). Kind of assay: condition: 380 µM CLCa I54D titrated into 20 µM myosin VI^1050–1131; ITC; 380 µM CLCa WT or I54D titrated into 20 µM Hip1R^346–655 or myosin VI^1050–1131 in the cell; 20 mM Tris-HCl pH 8.0, 150 mM NaCl, 2.5% glycerol, 25 °C; one-set-of-sites model; both purified.
A further assay deals with T3, GST-CLCa I54A (human) (UniProt P09496).
T3 sequence: T1 sequence with I54A, A64P, E99Q, T118M, V140I, S160N
Kind of assay: pull-down; GST-CLC proteins (1.5 μM) on glutathione sepharose beads incubated 1 h at 4 °C in JS buffer with cleaved and purified myosin VI fragments; SDS-PAGE, Coomassie; both purified.

Assay [6] has as its target T4, GST-CLCa full length (human) (UniProt P09496).
T4 sequence: T1 sequence with A64P, E99Q, T118M, V140I, S160N
The assay is described as above.

In the next assay the target is T5, GST-CLCa Δ46-61 (human) (UniProt P09496).
T5 sequence: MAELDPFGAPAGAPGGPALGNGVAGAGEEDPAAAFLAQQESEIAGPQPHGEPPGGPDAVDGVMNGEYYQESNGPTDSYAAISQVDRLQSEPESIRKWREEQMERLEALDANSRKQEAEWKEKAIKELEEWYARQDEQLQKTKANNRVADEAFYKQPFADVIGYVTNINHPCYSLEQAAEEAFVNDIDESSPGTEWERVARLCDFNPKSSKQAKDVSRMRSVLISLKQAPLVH
Described as above.

Another assay addresses T6, GST-CLCa I54D (human) (UniProt P09496).
T6 sequence: T1 sequence with I54D, A64P, E99Q, T118M, V140I, S160N
The assay is described as follows: pull-down; competition: GST-CLC protein on GSH beads pre-incubated with 2.5 μM His-Hip1R^346–655 for 1 h at 4 °C in JS buffer, then increasing amounts of myosin VI fragment; Coomassie and immunoblot; both purified.

In assay [7] the target is T4, GST-CLCa full length (human). Described as above.
Assay [8] has as its target T7, GST-CLCb full length (human) (UniProt P09497).
T7 sequence: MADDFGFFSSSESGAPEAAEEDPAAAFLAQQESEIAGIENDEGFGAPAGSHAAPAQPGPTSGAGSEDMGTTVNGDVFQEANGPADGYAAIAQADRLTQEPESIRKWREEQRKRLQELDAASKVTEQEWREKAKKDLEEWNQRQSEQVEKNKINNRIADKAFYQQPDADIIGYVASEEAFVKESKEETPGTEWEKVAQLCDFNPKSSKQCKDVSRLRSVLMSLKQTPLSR
The assay is described as above.

Assay [9] deals with myosin VI^998–1131 of the long isoform (myosin VI_(long)), cleaved from GST and purified (human) (UniProt Q9UM54). Kind of assay: SEC; 50 μM of each at 1:1 molar ratio, 15 min at 4 °C, Superdex75 (5/150); fractions by SDS-PAGE and Coomassie; both purified.
For assay [10], the target named is T7, GST-CLCb full length (human). The assay is described as follows: pull-down; GST-CLC proteins (1.5 μM) on glutathione sepharose beads incubated 1 h at 4 °C in JS buffer with cleaved and purified myosin VI fragments; SDS-PAGE, Coomassie; both purified.

Substitutions are numbered along the chain they refer to. In names and notes the source's numbering stands. Results are given in words; binding and its absence hold for the method and conditions named. For part of these data: In cells and extracts the contact can be indirect. Some entries that bind do so weakly or less than the wild type. For part of these data: Tags and fused reporters may be left off the sequences shown. Ends that are not written are not given here.

Consider “myosin VI of Caco-2 cell lysate (from UniProt Q9UM54 1-1294)”, for which, in [1], the binding entry is given as “binds”.
As to “clathrin heavy chain (CHC) of Caco-2 cell lysate (from UniProt Q00610 1-1675)”, the binding result in [2] and in assay [1] was “binds” in each case.

B1: CLCa full length, bacterially produced (ITC; reconstitution of cages) (natural protein, human, UniProt P09496 1-248, looked up)
chain: T1 sequence with A64P, E99Q, T118M, V140I, S160N
notes: clathrin light chain A (CLCa), human; Cleavage from GST is told for the cage reconstitution; also called CLCa FL; CLCa WT; source: bacterially produced and cleaved from GST, purified
As for B1, the binding result in assay [3] and in [4] was “binds” throughout.

B2: CLCa I54D full length (ITC) (natural protein, human, UniProt P09496 1-248, looked up)
chain: T1 sequence with I54D, A64P, E99Q, T118M, V140I, S160N
notes: clathrin light chain A (CLCa), human, I54D
As to B2, the binding result in [5] was “no binding”.

B3: myosin VI^1050–1131 of the long isoform, cleaved from GST and purified (domain or fragment, human, UniProt Q9UM54 1050-1131, looked up)
chain: RPKMTPEQMAKEMSEFLSRGPAVLATKAAAGTKKYDLSKWKYAELRDTINTSCDIELLAACREEFHRRLKVYHAWKSKNKKR
notes: 15N- or 13C,15N-labelled in some NMR samples; also called Myo6; source: E. coli Rosetta (DE3) or BL21 (DE3), GST fusion cleaved with PreScission Protease, purified (ion exchange or SEC)
On to B3, for which the binding result with GST-CLCa I54A (human) is recorded as “binds”; in assay [6] it was “binds”; in the assay with GST-CLCa Δ46-61 (human) it was “no binding”.

B4: His-Hip1R coiled-coil region (amino acids 346–655) (domain or fragment, UniProt O75146 346-655)
chain: GSVKDDRDLQIESLKREVEMLRSELEKIKLEAQRYIAQLKSQVNALEGELEEQRKQKQKALVDNEQLRHELAQLRAAQLEGERSQGLREEAERKASATEARYNKLKEKHSELVHVHAELLRKNADTAKQLTVTQQSQEEVARVKEQLAFQVEQVKRESELKLEEKSDQLEKLKRELEAKAGELARAQEALSHTEQSKSELSSRLDTLSAEKDALSGAVRQREADLLAAQSLVRETEAALSREQQRSSQEQGELQGRLAERESQEQGLRQRLLDEQFAVLRGAAAEAAGILQDAVSKLDDPLHLRCTSSPD
As to B4, the binding result (with GST-CLCa I54D (human); in assay [7]; in assay [8]) was “binds” throughout.

B5: GST-CLCa fragment of amino acids 47–97 (domain or fragment, human, UniProt P09496 47-97, looked up)
chain: ENDEAFAILDGGAPGPQPHGEPPGGPDAVDGVMNGEYYQESNGPTDSYAAI
notes: clathrin light chain A (CLCa), human, amino acids 47–97; also called CLCa 47–97; source: E. coli Rosetta (DE3), on glutathione-sepharose beads
As to B5, the binding entry in assay [9] is “binds”.

B6: myosin VI^998–1131 of the long isoform (myosin VI_(long)), cleaved from GST and purified (domain or fragment, human, UniProt Q9UM54 998-1131, looked up)
chain: QQQAVLEQERRDRELALRIAQSEAELISDEAQADLALRRSLDSYPVSKNDGTRPKMTPEQMAKEMSEFLSRGPAVLATKAAAGTKKYDLSKWKYAELRDTINTSCDIELLAACREEFHRRLKVYHAWKSKNKKR
notes: source: E. coli Rosetta (DE3), GST fusion cleaved with PreScission Protease, purified (ion exchange)
For the molecule B6, the binding entry in assay [6] is “binds”; in assay [10], “no binding”.
